# Measurements from PubChem BioAssay (Tox21).
# “And” between values parts separate entries of the source, which are not always exact repeats. Equal values may be shown once. Where a structure was tested more than once in an assay, its records may differ in their call. The source made the active and inactive calls. Unless noted, calls come from the whole dose curve; as a rule, active = well fitted curve in the direction sought with a large enough effect in the repeat runs; inconclusive = weak or mixed curves; inactive = no such curve, though single readings can be large; an effect the other way counts as inactive or inconclusive.
# What was measured:
# [1] = qHTS assay to identify small molecule antagonists of the androgen receptor (AR) signaling pathway - cell viability counter screen (AID 743033; note: potency is the fitted concentration of half-maximal effect; nearly all actives have a fitted effect of over 45% in size); conditions: AR-bla HEK293 viability, CellTiter-Glo luminescence, 16 h; activity change, negative = cytotoxicity: at 58.5 µM (top of the series) unless noted
# [2] = qHTS assay to identify small molecule antagonists of the androgen receptor (AR) signaling pathway using the MDA cell line - cell viability counter screen (AID 743041; note: nearly all actives have a fitted effect of over 45% in size; note: potency is the fitted concentration of half-maximal effect; for viability change, negative = cytotoxic: % is set by controls: 0 for no effect and ±100 for the full control effect); conditions: MDA-kb2 viability, CellTiter-Fluor, 16 h, cells co-treated with R1881 androgen agonist; viability change, negative = cytotoxic: at 70.3 µM (top of the series) unless noted
# In short: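 Cytotoxicity counter screen: MDA-kb2 AR-luc cells, compound + R1881, 16 h, 37C, 0% CO2; CellTiter-Fluor added at 15.5 h, fluorescence read after 30 min.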
# [3] = test system: thyroid hormone receptor (rat, GH3 cells); test: qHTS assay to identify small molecule agonists of the thyroid receptor (TR) signaling pathway (AID 743066; calls by dose curve; note: % is set by controls: 0 for no effect and ±100 for the full control effect); conditions: GH3.TRE-Luc cells, TR agonist luciferase, 24 h; activation: at 83.9 µM (top of the series) unless noted
# [4] = qHTS assay to identify small molecule antagonists of the estrogen receptor alpha (ER-alpha) signaling pathway - cell viability counter screen (AID 743074; calls by dose curve;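 note: HEK293 cells carrying ER-alpha-UAS-bla reporter stimulated with 17beta-estradiol; potency is the fitted concentration of half-maximal effect; nearly all actives have a fitted effect of over 45% in size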)
# [5] = target: Peroxisome proliferator-activated receptor gamma (Homo sapiens) (UniProt P37231); test: qHTS assay to identify small molecule agonists of the peroxisome proliferator-activated receptor gamma (PPARg) signaling pathway (AID 743094; active = well fitted activation curve with a large enough effect in the signal ratio in the repeat runs, not every such curve was filed as active; inconclusive = weak or mixed curves, or effect the other way; inactive = no such curve, though single readings can be large or run the other way; the % refers to the signal ratio; note: potency is the fitted concentration of half-maximal effect; for activation: % is set by controls: 0 for no effect and ±100 for the full control effect); conditions: HEK293H PPARg-UAS-bla, beta-lactamase FRET ratio, 17 h; activation: at 57 µM (top of the series) unless noted
# UniProt P37231, sequence (P37231 whole entry, looked up): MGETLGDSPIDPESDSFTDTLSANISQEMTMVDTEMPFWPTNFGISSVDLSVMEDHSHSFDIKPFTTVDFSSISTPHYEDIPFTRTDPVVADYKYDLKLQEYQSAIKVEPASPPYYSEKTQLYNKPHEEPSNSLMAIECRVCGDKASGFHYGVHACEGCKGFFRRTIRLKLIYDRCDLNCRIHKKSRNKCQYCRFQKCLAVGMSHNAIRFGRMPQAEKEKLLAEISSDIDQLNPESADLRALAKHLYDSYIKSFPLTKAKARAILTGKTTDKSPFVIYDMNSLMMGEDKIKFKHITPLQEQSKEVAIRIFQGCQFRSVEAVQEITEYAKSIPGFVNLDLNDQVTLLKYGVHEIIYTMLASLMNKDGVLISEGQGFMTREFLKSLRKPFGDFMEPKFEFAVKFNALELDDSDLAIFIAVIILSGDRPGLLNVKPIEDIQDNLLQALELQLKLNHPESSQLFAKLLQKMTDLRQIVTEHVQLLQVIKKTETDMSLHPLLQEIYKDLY
# In short: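 HEK293H PPARg-bla cells, 5 h settle at 37C/5% CO2; compound (DMSO) 17 h, 37C; B/G FRET substrate 1 h RT; fluorescence intensity read-out. qHTS format.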
# [6] = qHTS assay to identify small molecule antagonists of the thyroid receptor (TR) signaling pathway - cell viability counter screen (AID 743064); conditions: GH3.TRE-Luc viability, CellTiter-Fluor, 24 h; activity change, negative = cytotoxic: at 70.3 µM (top of the series) unless noted; note: nearly all actives have a fitted effect of over 50% in size; note: potency is the fitted concentration of half-maximal effect
# In short: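 Fluorescence from CellTiter-Fluor, added after 23.5 h exposure at 37 °C, reported viability of GH3.TRE-Luc cells co-treated with compound and 1 nM T3. Measured in the same wells as the luciferase TR readout.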
# [7] = target: Estrogen receptor (Homo sapiens) (UniProt P03372); test: qHTS assay to identify small molecule antagonists of the estrogen receptor alpha (ER-alpha) signaling pathway (AID 743069; active = well fitted curve in the direction sought with a large enough effect in the signal ratio in the repeat runs, not every such curve was filed as active; inconclusive = weak or mixed curves, or effect the other way; inactive = no such curve, though single readings can be large or run the other way; the % refers to the signal ratio; note: potency is the fitted concentration of half-maximal effect; for activity, negative = inhibition: % is set by controls: 0 for no effect and ±100 for the full control effect); conditions: HEK293 ER-alpha-UAS-bla, beta-lactamase ratio, antagonist mode; activity, negative = inhibition: at 69.4 µM (top of the series) unless noted
# UniProt P03372, sequence (P03372 whole entry, looked up): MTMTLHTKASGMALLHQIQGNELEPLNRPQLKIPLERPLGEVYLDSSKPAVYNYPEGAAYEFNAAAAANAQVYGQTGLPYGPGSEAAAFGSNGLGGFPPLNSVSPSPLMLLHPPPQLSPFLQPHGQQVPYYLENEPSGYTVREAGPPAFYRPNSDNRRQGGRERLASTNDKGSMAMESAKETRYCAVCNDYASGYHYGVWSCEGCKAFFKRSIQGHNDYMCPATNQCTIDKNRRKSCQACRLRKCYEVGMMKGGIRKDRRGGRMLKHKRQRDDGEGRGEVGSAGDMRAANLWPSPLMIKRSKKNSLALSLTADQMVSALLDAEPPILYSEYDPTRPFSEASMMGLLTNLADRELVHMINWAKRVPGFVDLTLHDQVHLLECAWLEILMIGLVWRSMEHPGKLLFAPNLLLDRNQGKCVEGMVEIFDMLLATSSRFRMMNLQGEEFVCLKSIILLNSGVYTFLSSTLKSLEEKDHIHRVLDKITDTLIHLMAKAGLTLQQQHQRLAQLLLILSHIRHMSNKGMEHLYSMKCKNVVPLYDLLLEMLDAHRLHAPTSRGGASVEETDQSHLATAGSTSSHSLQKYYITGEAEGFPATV
# In short: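 Beta-lactamase FRET fluorescence is read after 2 hr at room temperature with LiveBLAzer B/G substrate. Before that, ER-alpha-bla HEK293 cells sit 4 hr after plating, then receive compound plus 17beta-estradiol and incubate 18 hr at 37C.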
# [8] = target: Estrogen receptor (Homo sapiens) (UniProt P03372); test: qHTS assay to identify small molecule agonists of the estrogen receptor alpha (ER-alpha) signaling pathway using the BG1 cell line (AID 743079); conditions: BG1Luc4E2 cells, ERE-luciferase agonist, 22 h; for Potency: activation: at 70.3 µM (top of the series) unless noted; note: potency is the fitted concentration of half-maximal effect; for all read-outs here: nearly all actives have a fitted effect of over 20% in size
# [9] = qHTS assay to identify small molecule antagonists of the estrogen receptor alpha (ER-alpha) signaling pathway using the BG1 cell line (AID 743080; calls by dose curve;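 note: BG1 cells stimulated with 17beta-estradiol alongside compound; potency is the fitted concentration of half-maximal effect; nearly all actives have a fitted effect of over 25% in size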); conditions: BG1Luc4E2 ERE-luciferase antagonist mode, luminescence; activity change, negative = inhibition: at 70.3 µM (top of the series) unless noted
# In short: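 BG1Luc4E2, endogenous ER-alpha, 4xERE-luc; 5 d charcoal-stripped FBS, phenol red free; 24 h plating; cpd + 17beta-estradiol 21.5 h, 37 C/5% CO2; CellTiter-Fluor viability 30 min, then ONE-Glo luciferase 30 min RT.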
# [10] = qHTS assay to identify aromatase inhibitors - cell viability counter screen (AID 743084); conditions: MCF-7 aro ERE viability, CellTiter-Fluor, 24 h; activity change, negative = cytotoxicity: at 70.3 µM (top of the series) unless noted;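 note: cells stimulated with testosterone during compound exposure; potency is the fitted concentration of half-maximal effect; nearly all actives have a fitted effect of over 55% in size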
# [11] = target: Aryl hydrocarbon receptor (Homo sapiens) (UniProt P35869); test: qHTS assay to identify small molecule that activate the aryl hydrocarbon receptor (AhR) signaling pathway (AID 743085); note: potency is the fitted concentration of half-maximal effect; nearly all actives have a fitted effect of over 15% in size
# UniProt P35869, sequence (P35869 whole entry, looked up): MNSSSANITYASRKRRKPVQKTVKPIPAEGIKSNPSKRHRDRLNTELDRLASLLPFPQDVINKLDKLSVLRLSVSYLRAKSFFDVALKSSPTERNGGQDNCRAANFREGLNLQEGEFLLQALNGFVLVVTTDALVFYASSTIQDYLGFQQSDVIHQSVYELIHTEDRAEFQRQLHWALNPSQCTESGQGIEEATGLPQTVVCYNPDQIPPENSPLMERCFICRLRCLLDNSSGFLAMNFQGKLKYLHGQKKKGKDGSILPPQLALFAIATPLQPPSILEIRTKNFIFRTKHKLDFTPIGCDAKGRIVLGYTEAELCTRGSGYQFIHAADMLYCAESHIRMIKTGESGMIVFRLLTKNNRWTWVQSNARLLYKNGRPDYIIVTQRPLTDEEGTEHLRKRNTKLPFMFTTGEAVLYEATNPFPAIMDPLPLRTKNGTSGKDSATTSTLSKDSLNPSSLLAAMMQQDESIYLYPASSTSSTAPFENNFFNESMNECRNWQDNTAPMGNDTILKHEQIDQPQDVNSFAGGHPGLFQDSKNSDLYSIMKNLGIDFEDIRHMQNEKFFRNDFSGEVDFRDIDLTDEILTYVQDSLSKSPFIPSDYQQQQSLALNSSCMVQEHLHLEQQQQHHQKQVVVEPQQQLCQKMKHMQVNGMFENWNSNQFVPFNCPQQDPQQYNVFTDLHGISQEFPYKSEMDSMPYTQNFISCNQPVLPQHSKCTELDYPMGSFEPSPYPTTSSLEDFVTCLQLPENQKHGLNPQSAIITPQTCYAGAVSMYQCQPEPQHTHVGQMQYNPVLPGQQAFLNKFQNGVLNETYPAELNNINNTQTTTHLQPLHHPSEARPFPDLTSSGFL
# In short: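 Cell line HG2L7.5c1 (human hepatoma, 20× DRE-luc). Plated, 5 h 37C, compound/DMSO added, 24 h 37C. CellTiter-Fluor 30 min 37C → fluorescence; then ONE-Glo 30 min RT → luminescence.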
# [12] = qHTS assay to identify small molecule antagonists of the estrogen receptor alpha (ER-alpha) signaling pathway using the BG1 cell line - cell viability counter screen (AID 743081); conditions: BG1Luc4E2 viability, CellTiter-Fluor, 22 h; activity change, negative = cytotoxicity: at 70.3 µM (top of the series);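 note: compound given together with 17beta-estradiol as the ER stimulus; potency is the fitted concentration of half-maximal effect; nearly all actives have a fitted effect of over 45% in size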
# [13] = qHTS assay to identify small molecule that activate the aryl hydrocarbon receptor (AhR) signaling pathway - cell viability counter screen (AID 743086)
# In short: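 HepG2-AhR-luc (HG2L7.5c1) cells, 4000/well, treated 24 h at 37 C with compound; viability measured as CellTiter-Fluor fluorescence after 30 min in the same wells as the luciferase read.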
# Aromatase (Homo sapiens) = Aromatase (Homo sapiens) (UniProt P11511); test: qHTS assay to identify aromatase inhibitors (AID 743083); conditions: MCF-7 aro ERE, testosterone-driven ERE luciferase, 24 h; activity, negative = inhibition: at 70.3 µM (top of the series); note: potency is the fitted concentration of half-maximal effect; nearly all actives have a fitted effect of over 55% in size
# UniProt P11511, sequence (P11511 whole entry, looked up): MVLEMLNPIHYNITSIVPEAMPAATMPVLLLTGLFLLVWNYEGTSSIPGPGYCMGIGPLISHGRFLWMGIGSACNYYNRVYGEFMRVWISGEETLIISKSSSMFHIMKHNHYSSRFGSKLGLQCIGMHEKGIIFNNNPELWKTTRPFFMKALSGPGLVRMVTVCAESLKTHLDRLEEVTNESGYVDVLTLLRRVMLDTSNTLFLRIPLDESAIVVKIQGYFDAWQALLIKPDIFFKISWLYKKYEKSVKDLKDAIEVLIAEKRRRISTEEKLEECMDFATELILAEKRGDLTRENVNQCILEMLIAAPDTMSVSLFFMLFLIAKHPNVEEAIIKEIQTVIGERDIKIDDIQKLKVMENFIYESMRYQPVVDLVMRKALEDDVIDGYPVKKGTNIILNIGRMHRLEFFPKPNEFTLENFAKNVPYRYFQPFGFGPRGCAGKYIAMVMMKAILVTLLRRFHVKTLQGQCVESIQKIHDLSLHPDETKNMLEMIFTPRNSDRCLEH
# Tags give direction and shape of the fitted curve or compound fluorescence and quenching.
smiles,measurement,setting,value
O=C(O)C1(c2ccc3c(c2)OC[C@H](Cc2ccc(-c4ccccc4)cc2)[C@H]3O)CCCC1,Potency,[1],"inconclusive: 54.9 µM [cytotoxic, partial curve, poor fit]"
same,Potency,[2],"inconclusive: 68.6 µM [cytotoxic, partial curve, poor fit]"
same,activation,[3],inconclusive: -9.79% [phenotype inactive]
same,Potency,[4],active: 54.9 µM
same,Potency,[5],inconclusive: 61.6 µM
Nc1ccc(Cc2ccc(N)c(Cl)c2)cc1Cl,Potency,[1],inconclusive: 53.1 µM [cytotoxic]
same,Potency,[2],inactive
same,Potency,[6],active: 52.7 µM
same,Potency,[7],active: 4.22 µM [inconclusive]
same,Potency,[8],"inconclusive: 2.96 µM [activator, full curve]"
same,Potency,[9],inconclusive: 52.7 µM
same,Potency,[10],inconclusive: 66.3 µM [cytotoxic]
same,Potency,[11],inconclusive: 29.6 µM [activator]
COc1cc(C=O)cc2c1[C@H](COC(N)=O)[C@]1(OC(C)=O)ON2C[C@H]2[C@@H]1N2C(C)=O,Potency,[1],"inconclusive: 13.8 µM [cytotoxic, full curve]"
same,Potency,[2],"inconclusive: 21.7 µM [cytotoxic, partial curve]"
same,Potency,[7],active: 5.49 µM [inconclusive]
same,Potency,[4],"inconclusive: 6.16 µM [rising, full curve, poor fit]"
same,Potency,[8],"inconclusive: 0.137 µM [inhibitor, full curve]"
same,Potency,[9],active: 0.217 µM
same,Potency,[12],"inconclusive: 15.4 µM [cytotoxic, partial curve]"
same,Potency,[10],"inconclusive: 1.72 µM [cytotoxic, full curve, poor fit]"
same,Potency,[13],active: 0.306 µM
same,Potency,[5],"inconclusive: 0.138 µM [inhibitor, full curve]"
CN1C[C@H](CNC(=O)OCc2ccccc2)C[C@@H]2c3cccc4c3c(cn4C)C[C@H]21,Potency,[1],"inconclusive: 16.9 µM [cytotoxic, partial curve]"
same,Potency,[2],"inconclusive: 33.5 µM [cytotoxic, single point]"
same,activation,[3],inconclusive: -6.41% [phenotype inactive]
same,"activity, negative = inhibition",[7],inconclusive: -32.7%
same,Potency,[8],"inconclusive: 29.8 µM [inhibitor, partial curve]"
same,Potency,[12],"inconclusive: 15 µM [cytotoxic, partial curve, poor fit]"
same,Potency,Aromatase (Homo sapiens),"inconclusive: 33.5 µM [inhibitor, single point]"
same,Potency,[10],inconclusive: 29.8 µM [cytotoxic]
same,Potency,[11],"inconclusive: 23.7 µM [activator, partial curve]"
same,Potency,[13],active: 29.8 µM
same,activation,[5],inconclusive: -15.9%
C[C@H]1CCC[C@H](O)CCCCCc2cc(O)cc(O)c2C(=O)O1,Potency,[1],"inconclusive: 44 µM [cytotoxic, partial curve]"
same,Potency,[2],"inconclusive: 35 µM [cytotoxic, single point] and inconclusive: 69.1 µM [cytotoxic, single point]"
same,Potency,[6],inactive and active: 54.9 µM
same,Potency,[7],inconclusive: 55.4 µM [fluorescent]
same,activation,[8]; at 70.3 µM (top of the series),active: -0.266%
same,activation,[8]; at 95 µM (top of the series),active: -52.7%
same,Potency,[12],"inconclusive: 69.1 µM [cytotoxic, single point]"
same,Potency,Aromatase (Homo sapiens),active: 61.6 µM
same,Potency,[10],"inconclusive: 23.7 µM [cytotoxic, partial curve, poor fit]"
same,Potency,[13],"inconclusive: 69.1 µM [falling, single point]"
same,Potency,[5],"inconclusive: 24.7 µM [rising, full curve, poor fit]"
same,activation,[5],inconclusive: -13.7%
CSC1=N[C@@](C)(c2ccccc2)C(=O)N1Nc1ccccc1,Potency,[1],"inconclusive: 21.9 µM [cytotoxic, partial curve]"
same,Potency,[2],active: 48.6 µM
same,Potency,[6],"inconclusive: 0.243 µM [rising, single point]"
same,Potency,[12],"inconclusive: 12.2 µM [cytotoxic, full curve]"
same,Potency,Aromatase (Homo sapiens),"inconclusive: 19.3 µM [inhibitor, partial curve, poor fit]"
same,activation,[5],inconclusive: -13.4%
CC(=O)[O-].[Tl+],Potency,[1],"inconclusive: 27.7 µM [cytotoxic, partial curve, poor fit]"
same,Potency,[2],"inconclusive: 69 µM [cytotoxic, single point]"
same,Potency,[6],"inconclusive: 48.9 µM [cytotoxic, partial curve]"
same,Potency,[4],"inconclusive: 22 µM [cytotoxic, partial curve, poor fit]"
